This is an account of results in ChEMBL document CHEMBL5308541, “MAIP: An Open-Source Tool to Enrich High-Throughput Screening Output and Identify Novel, Druglike Molecules with Antimalarial Activity” (ACS Med Chem Lett, 2023).

SMILES strings stand for the structures. The campaign covered roughly 150,000 compounds. About 540 (0.36%) showed an effect of 50% or more. Some of the results follow.

As usually defined, the % Inhibition is the change of the read-out against control, counted positive when it falls.

For the test, the system named is Plasmodium falciparum. The test is described as follows: Primary screen in NF54 nanoGlo assay, in single point, at 2uM, 72h; a lower Z score goes with more inhibition. The class given is functional, Erythrocyte. The note with it: timepoint 72 hour.
As for `Cc1nn(-c2nc3ccccc3s2)c(O)c1-c1cc(O)c2ccccc2n1`, the “% Inhibition” value is listed as -8% and the Z score worked out at 1.49.
For `CC(C)OCCO[C@H]1CCOC2(CCN(Cc3ccc4cc[nH]c4c3)CC2)C1`, the “% Inhibition” value came to 7% and the Z score is given as -1.16.
In the case of `O=C(Nc1cccc(-c2ccn[nH]2)c1)C1CCN(Cc2cccn2-c2ncccn2)CC1`, the “% Inhibition” value is -5% and the Z score is 0.95.
For `CCc1noc(C2CCC3(CC2)NC(C)(C)C(=O)N3CC2CCCCC2)n1` (stereo unspecified), in that order: 4% and -0.65.
Regarding `COc1ccc2ccccc2c1CNC[C@H]1CCN(c2ccc(F)c(F)c2)C1`, the “% Inhibition” value is listed as -3% and the Z score was determined as 0.68.
The matching figures for `c1cc(-c2csc(CNc3ncnc4[nH]ncc34)n2)ccn1`: -7% and 1.59.
The matching figures for `c1ccc(-c2nc(NCCNc3cnccn3)nc3ccccc23)cc1`: -1% and 0.1.
With `c1ncc(-c2ccnc(C3CCN(Cc4nc5c(s4)CNCC5)CC3)n2)cn1`, the “% Inhibition” value is 6% and the Z score is -0.89.
For `OC1CCCC(CNc2cc(NC3CCCOC3)ncn2)C1` (stereo unspecified), in that order: 9% and -1.9.
As to `Cc1cc(Nc2ccc(NC3CCOCC3)cc2)nc(N)n1`, the “% Inhibition” value is -2% and the Z score was 0.34.
For the compound `Cn1nccc1C1=CC2CCC(C1)N2C(=O)Nc1cnc(N2CCNCC2)nc1` (stereo unspecified), the “% Inhibition” value is reported as -4% and the Z score was 0.75.
For `O=C(c1ccc(-c2ncnc3ccsc23)cc1)N1CCCNCC1`, in that order: -9% and 1.48.
For `CCN=C(NCCOC)N[C@@H](C)c1ccc(F)cc1F`, in that order: -6% and 1.16.
The matching figures for `Cc1nc(C2CCNCC2)cc(N2CCCC[C@@H]2CCn2ccnc2C)n1`: -10% and 1.53.
For the compound `c1cc(-c2nc([C@@H]3CCCCCN3)no2)c2cn[nH]c2c1`, the “% Inhibition” value is -3% and the Z score is 0.56.
The matching figures for `Cc1noc(-c2cncnc2NCCCN2CCN(c3cc(Cl)ccc3C)CC2)n1`: 9% and -1.73.
For `COCc1nc2cc(N[C@@H](C)C(=O)N3CCN(c4ncccn4)CC3)ccc2o1`, in that order: -8% and 1.69.
Turning to `C[C@@H](CCc1ccccc1)Nc1cc(N2CCN(C)CC2)nc(N)n1`, the “% Inhibition” value worked out at 13% and the Z score was -2.64.
For `c1ccc(-c2nc3c(c(NCc4ccc5c(c4)OCO5)n2)CCNCC3)nc1`, in that order: 8% and -1.64.
With `COc1ccc([C@H](CC(=O)NCc2cccc3[nH]ccc23)c2cc3c(cc2O)OCO3)cc1`, the “% Inhibition” value was -14% and the Z score came out at 2.35.
As for `Cc1ccnc(O[C@H]2CCOC3(CCN(C(=O)CN4CCCCCC4)CC3)C2)c1`, the “% Inhibition” value is -7% and the Z score stood at 1.24.
The matching figures for `CC(C)(C)OC(=O)N1CCN(C(C)(C)C(=O)NC2CCN(C(C)(C)C)CC2)CC1`: 2% and -0.37.
As to `CCN1CCC[C@@H]1CN1CCN(c2cc(C)nc(C)c2)CC1`, the “% Inhibition” value came out at 2% and the Z score is recorded as -0.33.
